The campaign covered roughly 310,000 compounds. About 14,000 (4.5%) showed an effect of 50% or more. Effects have a minus sign here. The list shows a part of the results.
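Also: peak tail current of the secondary pulse compared with the same well before compound.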

The target in the experiment is human ether-à-go-go-related gene (hERG) potassium channel (human, UniProt Q12809). Description: primary screen, population patch clamp on CHO cells stably expressing hERG.
Chain of human ether-à-go-go-related gene (hERG) potassium channel (Q12809 whole entry, looked up): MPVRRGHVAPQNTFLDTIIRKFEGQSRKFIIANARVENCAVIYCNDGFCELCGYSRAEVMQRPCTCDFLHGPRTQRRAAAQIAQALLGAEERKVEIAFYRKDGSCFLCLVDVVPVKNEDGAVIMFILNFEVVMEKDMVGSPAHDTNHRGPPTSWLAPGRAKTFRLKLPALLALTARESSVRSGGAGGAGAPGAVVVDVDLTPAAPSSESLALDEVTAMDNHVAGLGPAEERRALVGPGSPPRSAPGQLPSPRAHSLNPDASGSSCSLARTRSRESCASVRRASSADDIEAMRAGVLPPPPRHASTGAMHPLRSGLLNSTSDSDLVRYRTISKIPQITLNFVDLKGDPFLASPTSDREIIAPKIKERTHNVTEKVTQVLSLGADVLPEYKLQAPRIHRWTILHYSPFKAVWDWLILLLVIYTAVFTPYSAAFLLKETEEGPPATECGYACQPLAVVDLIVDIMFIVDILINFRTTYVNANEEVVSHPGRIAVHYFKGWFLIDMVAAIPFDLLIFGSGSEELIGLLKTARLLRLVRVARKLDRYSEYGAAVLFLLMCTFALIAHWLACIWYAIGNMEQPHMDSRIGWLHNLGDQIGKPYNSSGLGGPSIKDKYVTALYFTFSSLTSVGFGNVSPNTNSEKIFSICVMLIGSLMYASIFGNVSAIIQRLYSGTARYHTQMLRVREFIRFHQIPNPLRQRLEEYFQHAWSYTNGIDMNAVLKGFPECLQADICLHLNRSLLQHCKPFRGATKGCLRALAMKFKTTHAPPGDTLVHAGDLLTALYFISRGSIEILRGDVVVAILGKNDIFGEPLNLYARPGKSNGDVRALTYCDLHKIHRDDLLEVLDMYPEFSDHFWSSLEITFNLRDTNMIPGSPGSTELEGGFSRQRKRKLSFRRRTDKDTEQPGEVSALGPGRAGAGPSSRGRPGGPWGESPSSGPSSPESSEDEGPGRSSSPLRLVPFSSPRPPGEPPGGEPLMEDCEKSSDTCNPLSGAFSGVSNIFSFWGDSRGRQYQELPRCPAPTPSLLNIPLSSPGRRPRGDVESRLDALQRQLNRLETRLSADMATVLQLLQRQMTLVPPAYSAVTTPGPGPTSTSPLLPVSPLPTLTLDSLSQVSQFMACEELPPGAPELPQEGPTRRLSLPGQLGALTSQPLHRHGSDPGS
Regarding `O=S1(=O)CCOC[C@H](Cc2ccccc2)N1Cc1ccc(F)cc1`, the “hERG current change (%, negative = inhibition) at 10uM” value was -32.9%. As for `Cc1nc(SCc2cccc(Oc3ccccc3)c2)n[nH]1`, the “hERG current change (%, negative = inhibition) at 10uM” value is -21.5%. Regarding `CCCCCN(C(=O)COC(=O)c1ccc(C)cc1)c1c(N)n(CCCC)c(=O)[nH]c1=O`, the “hERG current change (%, negative = inhibition) at 10uM” value is -4.65%. In the case of `Cc1ccccc1-n1c(=O)c(C#N)cc2c(=O)n3ccccc3nc21` it was -25.4%; in that of `CC(=O)Nc1ccc(Oc2ccc(NC(C)=O)c(NC(C)=O)c2)cc1`, 1.5%; in that of `Cc1cccn2c(=O)nc(SCC(=O)Nc3ccc4c(c3)OCCO4)nc12`, -11.2%. In the case of `CN(CCC1CCOCC1)C(=O)C1CCC(=O)N(CCc2cccc(F)c2)C1` (centres unmarked) it was 12%. In the case of `Cc1ccc(CCN2CC(C(=O)NC3CCCCC3)CC2=O)cc1` (centres unmarked) it was -12.9%; in that of `CCc1c(C)[nH]n(-c2ccc(Oc3ccccc3)c(S(=O)(=O)O)c2)c1=O`, 20.5%; in that of `O=C(NC1CC1)c1cccc(S(=O)(=O)Nc2ccccc2F)c1`, 0.0966%. Turning to `Cc1ccc2cc(CCNC(=O)Cc3cccs3)c(=O)[nH]c2c1`, the “hERG current change (%, negative = inhibition) at 10uM” value is on record as -8.14%. For the compound `Cc1cccnc1NC(=O)c1ccc(OCC2CCCO2)cc1` (centres unmarked), the “hERG current change (%, negative = inhibition) at 10uM” value worked out at 15.9%.

As to `C/C=C\C(=O)Nc1cccc(C2=NOC3(C2)C[C@H](C(N)=O)N(C(=O)/C=C/CC)C3)c1` (some centres unmarked), the “hERG current change (%, negative = inhibition) at 10uM” value was found to be 12.7%.

For the compound `CC(C)c1ccc(NC(=O)CCNC(=O)N2CC(=O)Nc3ccccc32)cc1`, the “hERG current change (%, negative = inhibition) at 10uM” value was found to be 14.5%.

Turning to `O=C(c1ccncc1)N1N=C(C2CC2)CC1(O)C(F)(F)F` (centres unmarked), the “hERG current change (%, negative = inhibition) at 10uM” value turned out to be 6.56%. Turning to `Nc1nc2ccccc2n1CCOc1ccccc1Cl`, the “hERG current change (%, negative = inhibition) at 10uM” value is listed as -3.5%. The result for `O=C(CSc1ccc(F)cc1)NC12CC3CC(CC(C3)C1)C2` reads -1.29%. In the case of `Cn1c(SC2CCCCC2=O)nnc1-c1ccccc1F` (centres unmarked) it was 9.45%; in that of `NC(=O)C1CCN(C(=O)c2ccc(-c3ccccc3)cc2)CC1`, 1.72%; in that of `Cc1nn(-c2ccccc2)c(N)c1N=O`, 15.4%. `COc1ccc(-c2c(C)nn3c(C)cc(C)nc23)cc1`: the “hERG current change (%, negative = inhibition) at 10uM” value worked out at 5.87%. In the case of `CCCNC(=O)c1ccc(N2CCC3(CC2)CC(c2ccccc2)=NO3)c(NC(=O)c2ccc(Br)cc2)c1` it was -1.91%. The result for `COc1ccc(Cc2nnc(SCC(=O)N3CCCCC3)o2)cc1` reads 3.78%; that for `CCCNC(=O)NC(C)C12CC3CC(CC(C3)C1)C2` (centres unmarked), -12.6%. For the compound `Nc1nc(SCC(=O)Nc2ccc(S(N)(=O)=O)cc2)n[nH]1`, the “hERG current change (%, negative = inhibition) at 10uM” value was 17.8%. In the case of `c1ccc2nc(N3CCN(Cc4ccc5c(c4)OCO5)CC3)cnc2c1` it was -28.5%; in that of `CN1C(=O)C(C)(C)c2cc(S(=O)(=O)N3CCN(c4ccccc4F)CC3)ccc21`, -3.03%; in that of `Cc1ccc(S(=O)(=O)CCc2nc3ccccc3n2CCC#N)cc1`, -5.05%. In the case of `Cc1nc2scc(C)n2c(=O)c1S(=O)(=O)Nc1ccc(F)cc1` it was -22.8%; in that of `CC(C)(C)OC(=O)N1CCC(Cc2cc(-c3cccc(Br)c3)no2)(C(=O)O)CC1`, -23.5%. In the case of `Cc1ccc(NNC(=O)c2c(C)noc2C)cc1Cl` it was -1.34%; in that of `COc1ccc(-c2nc(CNS(=O)(=O)c3ccc(OC)c(OC)c3)cs2)cc1`, -1.76%.

As to `Cc1ccc(CNC(=O)C2(C(F)(F)F)C/C(=C\Cc3ccccc3)CCCO2)o1` (centres unmarked), the “hERG current change (%, negative = inhibition) at 10uM” value is reported as 11.8%. The result for `O=C(CCCCn1c(=O)c2ccccc2n(CC(=O)Nc2ccc(F)cc2)c1=O)NCc1ccco1` reads -19.7%; that for `CN(C)c1ccc(N/C(=N\S(=O)(=O)c2cccs2)c2ccccc2)cc1.Cl`, -30.5%. As to `N#Cc1c(-c2ccc(Cl)cc2)cc(-c2ccccc2)nc1SCC(=O)O`, the “hERG current change (%, negative = inhibition) at 10uM” value is 15.3%. In the case of `Cc1cc(Nc2nnnn2-c2ccccc2)n(-c2ccc(Cl)cc2)n1` it was 19.3%; in that of `CC(C)Sc1nnc(CNC(=O)C23CC4CC(CC(C4)C2)C3)n1C1CCCCC1`, -9.93%; in that of `COc1cc(/C=N/NC(=O)CN2CCCCC2)ccc1OCc1ccccc1`, -64.1%. The result for `Cc1ccc(C)c(-n2c(=O)c(C#N)cc3c(=O)n4ccccc4nc32)c1` reads 30.5%; that for `COc1cc(C)nc(N(C)C(C)=O)n1`, 4.82%. Take `O=C(CSc1ccccc1F)Nc1ccc(N2CCOCC2)cc1`: the “hERG current change (%, negative = inhibition) at 10uM” value was 3.82%.

As to `Cc1[nH]ccc(=O)c1OCc1c(Cl)cccc1Cl`, the “hERG current change (%, negative = inhibition) at 10uM” value is reported as 10.5%.

As to `CN(C)CCN(C(=O)c1ccc2ccccc2c1)c1nc2c(F)cc(F)cc2s1.Cl`, the “hERG current change (%, negative = inhibition) at 10uM” value turned out to be 3.41%. In the case of `COc1ccccc1NC(=O)c1nnn(Cc2ccccc2)c1NC(=O)C(F)(F)F` it was -53%; in that of `Cc1ccc(OCC(=O)NCc2ccccc2)c([N+](=O)[O-])n1`, -15%. Consider `CCNC(=O)COC(=O)c1cc(S(=O)(=O)N2CCCCC2)ccc1C`, for which the “hERG current change (%, negative = inhibition) at 10uM” value is -4.25%. The result for `CNC(=O)Oc1ccc2c(c1)[C@]1(C)CCN(C)C1N2C.O=C(O)c1ccccc1O` (some centres unmarked) reads 10.7%; that for `O=C(Cc1ccc(Cl)cc1)Nc1ccc(SC(F)F)cc1`, -1.83%; that for `CCC(C)(C)NC(=O)C1CCN(c2nc(OC)nc(OC)n2)CC1`, 2.14%. The result for `Cc1occc1C(=O)Nc1ccc(Br)cc1F` reads 2.03%; that for `CC(=O)NN1C(=O)c2ccccc2NC1c1ccccc1` (centres unmarked), 10.9%; that for `CCc1nnc(NC(=O)CSCc2cc(=O)n3nc(C(C)C)sc3n2)s1`, 8.88%.

`COc1ccc(S(=O)(=O)N2CCSC2c2ccc(N)cc2)cc1` (centres unmarked): the “hERG current change (%, negative = inhibition) at 10uM” value is listed as -12%. As to `CCOc1ccc(N2C(=O)CC(N3CCN(C(=O)CN4CCCC4)CC3)C2=O)cc1` (centres unmarked), the “hERG current change (%, negative = inhibition) at 10uM” value is recorded as 13.9%. In the case of `O=S(=O)(Nc1ccc(-n2cccc2)cc1)c1ccccc1` it was 5.82%; in that of `CN(C)c1ccnc(-n2cccc2/C=N/OCc2cccc(F)c2)c1C#N`, -18.9%; in that of `C=CCN(c1ccc(C(=O)Nc2cccc(C)c2)cc1)S(C)(=O)=O`, -9.66%. On to `CC(C)(C)NC(=O)c1nc2nc(-c3ccccc3)cc(C(F)(F)F)n2n1`, for which the “hERG current change (%, negative = inhibition) at 10uM” value was 14.5%. In the case of `N#Cc1c(-c2ccncc2)c2c([nH]c1=S)CCCC2` it was 9.16%. The result for `O=C(COc1ccc(Br)cc1)N1CCN(c2ccccc2)CC1` reads -33.7%; that for `COc1cc(C2Nc3ccccc3NC3=C2C(=O)CC(c2ccc(OC)c(OC)c2)C3)ccc1O` (centres unmarked), 4.86%; that for `CCOC(=O)C(C)N1C(=O)S/C(=C/c2ccc3c(c2)n(C)c(=O)n3C)C1=O` (centres unmarked), -26.8%. Regarding `CN1CCN(C(=O)O[C@H]2c3nccnc3C(=O)N2c2ccc(Cl)cn2)CC1`, the “hERG current change (%, negative = inhibition) at 10uM” value came to 7.74%. With `CCc1nn(CC(=O)NCCCN2CCN(C)CC2)c(=O)c2cc3sccc3n12`, the “hERG current change (%, negative = inhibition) at 10uM” value was 7.04%. As for `O=C(Cn1cc([N+](=O)[O-])nc1[N+](=O)[O-])N1CCN(c2ccccc2)CC1`, the “hERG current change (%, negative = inhibition) at 10uM” value is recorded as -8.46%. The result for `O=C(NNc1c(Cl)cccc1Cl)c1sccc1Cl` reads 1.12%; that for `CN1C(=O)NC(c2cccc([N+](=O)[O-])c2)C2=C1CCCC2=O` (centres unmarked), 9.95%. In the case of `Cc1onc(-c2ccccc2Cl)c1C(=O)NNC(=O)c1ccccc1F` it was 23.2%; in that of `CN(CC(=O)NNC(=O)CNC(=O)c1cccs1)S(=O)(=O)c1ccc(Cl)cc1`, 4.41%. As for `S=c1[nH]nc(-c2cccc(Br)c2)o1`, the “hERG current change (%, negative = inhibition) at 10uM” value stood at 19.6%.

As to `Cc1ccc(SCC(=O)Nc2cccc(S(=O)(=O)N3CCOCC3)c2)cc1C`, the “hERG current change (%, negative = inhibition) at 10uM” value is reported as -2.37%. The result for `Cc1ccc(S(=O)(=O)Nc2ccc(S(=O)(=O)N3CCOCC3)cc2)cc1[N+](=O)[O-]` reads 15.3%; that for `CCc1ccc2nc(N3CCN(C(=O)C(C)(C)C)CC3)sc2c1`, -16.8%.

Regarding `Nc1nonc1-n1nncc1-c1ccccc1`, the “hERG current change (%, negative = inhibition) at 10uM” value is given as 1.98%. In the case of `COc1ccc(C(=O)NC(=S)Nc2ccc(CN3CCOCC3)cc2)cc1Cl` it was 4.58%; in that of `O=C(NCCc1ccc(F)cc1)C1CCN(C(=O)Nc2ccccc2)CC1`, -12.5%.

`CCOc1ccc(NCCC(=O)c2ccc3c(c2)OCO3)cc1`: the “hERG current change (%, negative = inhibition) at 10uM” value was -5.36%.

Consider `C=C(C)CC1N(c2cccc(OC)c2)C(=O)[C@@H]2C(C(=O)O)[C@H]3C=C[C@@]12O3` (some centres unmarked), for which the “hERG current change (%, negative = inhibition) at 10uM” value amounted to 2.7%.

Regarding `COc1ccc2[nH]c(C(=O)N/N=C/c3ccc(OC)c(O)c3)cc2c1`, the “hERG current change (%, negative = inhibition) at 10uM” value stood at 8.9%. In the case of `CNc1nc2cc([N+](=O)[O-])c([N+](=O)[O-])cc2nc1NC` it was -24.2%. For `CN1C=CC2=C(C#N)C(N)C(C#N)(C#N)[C@H](c3ccccc3)[C@H]2C1` (some centres unmarked), the “hERG current change (%, negative = inhibition) at 10uM” value is -4.67%. In the case of `COc1ccccc1NC(=O)N1CCN(c2cccc(C(F)(F)F)c2)CC1` it was -76.6%; in that of `O=C1CCCC(O)=C1N=Nc1ccc(Cl)c(Cl)c1`, 11.5%.

As for `O=C(COC(=O)C1(c2ccccc2F)CCCC1)Nc1ncc(C(F)(F)F)cc1Cl`, the “hERG current change (%, negative = inhibition) at 10uM” value is given as -10.1%.

Take `COC(=O)c1ccc(C)c(NC(=O)CCc2ccc(OC)c(OC)c2)c1`: the “hERG current change (%, negative = inhibition) at 10uM” value was found to be 6.37%.

In the case of `c1ccc2c3n(nc2c1)CCCO3`, the “hERG current change (%, negative = inhibition) at 10uM” value is reported as 13.3%. The result for `CCN(CC)c1ccc(/C=N/NC(=S)NCc2ccccc2)c(O)c1` reads 12%.

As for `COc1ccc(-c2oc3ccc(-c4ccc(OC)nc4)cc3c2C#CC2(O)CCCCC2)cc1`, the “hERG current change (%, negative = inhibition) at 10uM” value is -7.96%.

(Values after paper PMC4336329 (PLoS ONE, 2015).)
